# The list shows a part of the results.
# B1: PX9896A-bth-573-26-573 (Bacteroides thetaiotaomicron) (protein)
# chain: ETNNLKTKEDMYKYFGTSKSMLTHVYSYMPQGYQLFATSGGIFTEDRYSMRDCASDDGEFGAYADNIQNTNNGNWSPIKTYDDSWTLYRGIRAANSFIAEIAQVDFTRYEHDGQYTNWMKQLKYFPYEARVLRAHYFFELARRYGDIAMPLEVLTEEEANTIGKTPFSEVISFIVSECDDAANNLPDSYVNEPGAEIGRVTKGFAMAVKSKALLYAASKLHNPSMDTELWKKSAKAAIDIINTGLYSLDPQESANNLDSKEVVLMRINGDDSDFEMFNLPLRMTAGTRTSSLIPYSNYPSQNLVDAFETVNGYKVTLENTGWVCEDPAFDPQSPYENRDKRFYRAILANGMSFKDYTIETFKGGADDGIVSQGGSPTGYFLRKYIQEATSFEPGKEAVSKHHWVIYRYAETLLTYAESMVNAFNDVNYTDETYKYSALWAINEVRKNADMPLIPSMGKDEFMERLYNEWRVEFAFEDHRFWDVRRWKIADTTQRELYGVKIEKQADGTFNFYKNLYETRNWRDCMYLYPIPQSELYKNTNLNPQNTGW
# Assays:
# Experiment in all cases: glycan array binding signal (z-score within array); higher = stronger binding
# Details in all cases: glycan notation: IUPAC condensed, linker removed
# [1] = biological target: Fuc(a1-2)[Gal(a1-3)]Gal(b1-4)GlcNAc(b1-2)Man(a1-3)[Fuc(a1-2)[Gal(a1-3)]Gal(b1-4)GlcNAc(b1-2)Man(a1-6)]Man(b1-4)GlcNAc(b1-4)[Fuc(a1-6)]GlcNAc
# In short: (§1)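 From the Consortium for Functional Glycomics database, 3228 arrays were curated, keeping only those whose protein sequence was available. Binding is given as a within-array Z-score averaged across arrays sharing a protein sequence and across linkers. Negative Z-scores can be read as non-binding.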
# [2] = biological target: Fuc(a1-2)[Gal(a1-3)]Gal(b1-4)GlcNAc(b1-3)GalNAc
# In short: as §1
# [3] = biological target: Fuc(a1-2)[Gal(a1-3)]Gal(b1-4)GlcNAc(b1-3)[Fuc(a1-2)[Gal(a1-3)]Gal(b1-4)GlcNAc(b1-6)]GalNAc
# In short: as §1
# [4] = biological target: Fuc(a1-2)[Gal(a1-3)]Gal(b1-4)GlcNAc(b1-6)GalNAc
# In short: as §1
# [5] = biological target: Fuc(a1-2)[Gal(a1-3)]Gal(b1-4)[Fuc(a1-3)]Glc
# In short: as §1
# [6] = biological target: Fuc(a1-2)[Gal(a1-3)]Gal(b1-4)[Fuc(a1-3)]GlcNAc
# In short: as §1
# [7] = biological target: Fuc(a1-2)[Gal(a1-3)]Gal(b1-4)[Fuc(a1-3)]GlcNAc(b1-3)GalNAc
# In short: as §1
# [8] = biological target: Fuc(a1-2)[Gal(a1-4)]Gal(b1-4)GlcNAc
# In short: as §1
# [9] = biological target: Fuc(a1-2)[GalNAc(a1-3)]Gal
# In short: as §1
# [10] = biological target: Fuc(a1-2)[GalNAc(a1-3)]Gal(b1-3)GalNAc(a1-3)[Fuc(a1-2)]Gal(b1-4)GlcNAc
# In short: as §1
# [11] = biological target: Fuc(a1-2)[GalNAc(a1-3)]Gal(b1-3)GalNAc(b1-3)Gal(a1-4)Gal(b1-4)Glc
# In short: as §1
# [12] = biological target: Fuc(a1-2)[GalNAc(a1-3)]Gal(b1-3)GlcNAc
# In short: as §1
# [13] = biological target: Fuc(a1-2)[GalNAc(a1-3)]Gal(b1-3)GlcNAc(b1-2)Man(a1-3)[Fuc(a1-2)[GalNAc(a1-3)]Gal(b1-3)GlcNAc(b1-2)Man(a1-6)]Man(b1-4)GlcNAc(b1-4)GlcNAc
# In short: as §1
# [14] = biological target: Fuc(a1-2)[GalNAc(a1-3)]Gal(b1-3)GlcNAc(b1-2)Man(a1-3)[Fuc(a1-2)[GalNAc(a1-3)]Gal(b1-3)GlcNAc(b1-2)Man(a1-6)]Man(b1-4)GlcNAc(b1-4)[Fuc(a1-6)]GlcNAc
# In short: as §1
# [15] = biological target: Fuc(a1-2)[GalNAc(a1-3)]Gal(b1-3)GlcNAc(b1-3)GalNAc
# In short: as §1
# [16] = biological target: Fuc(a1-2)[GalNAc(a1-3)]Gal(b1-3)GlcNAc(b1-6)GalNAc
# In short: as §1
# [17] = biological target: Fuc(a1-2)[GalNAc(a1-3)]Gal(b1-4)Glc
# In short: as §1
# [18] = biological target: Fuc(a1-2)[GalNAc(a1-3)]Gal(b1-4)GlcNAc
# In short: as §1
# [19] = biological target: Fuc(a1-2)[GalNAc(a1-3)]Gal(b1-4)GlcNAc(b1-2)Man
# In short: as §1
# [20] = biological target: Fuc(a1-2)[GalNAc(a1-3)]Gal(b1-4)GlcNAc(b1-2)Man(a1-3)[Fuc(a1-2)[GalNAc(a1-3)]Gal(b1-4)GlcNAc(b1-2)Man(a1-6)]Man(b1-4)GlcNAc(b1-4)GlcNAc
# In short: as §1
# [21] = biological target: Fuc(a1-2)[GalNAc(a1-3)]Gal(b1-4)GlcNAc(b1-2)Man(a1-3)[Fuc(a1-2)[GalNAc(a1-3)]Gal(b1-4)GlcNAc(b1-2)Man(a1-6)]Man(b1-4)GlcNAc(b1-4)[Fuc(a1-6)]GlcNAc
# In short: as §1
# [22] = biological target: Fuc(a1-2)[GalNAc(a1-3)]Gal(b1-4)GlcNAc(b1-3)Gal(b1-4)GlcNAc
# In short: as §1
# [23] = biological target: Fuc(a1-2)[GalNAc(a1-3)]Gal(b1-4)GlcNAc(b1-3)Gal(b1-4)GlcNAc(b1-3)Gal(b1-4)GlcNAc
# In short: as §1
# [24] = biological target: Fuc(a1-2)[GalNAc(a1-3)]Gal(b1-4)GlcNAc(b1-3)GalNAc
# In short: as §1
# [25] = biological target: Fuc(a1-2)[GalNAc(a1-3)]Gal(b1-4)GlcNAc(b1-3)[Fuc(a1-2)[GalNAc(a1-3)]Gal(b1-4)GlcNAc(b1-6)]GalNAc
# In short: as §1
# [26] = biological target: Fuc(a1-2)[GalNAc(a1-3)]Gal(b1-4)GlcNAc(b1-6)GalNAc
# In short: as §1
# [27] = biological target: Fuc(a1-2)[GalNAc(a1-3)]Gal(b1-4)[Fuc(a1-3)]GlcNAc
# In short: as §1
# [28] = biological target: Fuc(a1-2)[GalNAc(a1-3)]Gal(b1-4)[Fuc(a1-3)]GlcNAc(b1-3)GalNAc
# In short: as §1
# [29] = biological target: Fuc(a1-2)[GalNAc(a1-4)]Gal(b1-4)GlcNAc
# In short: as §1
# [30] = biological target: Fuc(a1-2)[GalNAc(b1-3)]Gal
# In short: as §1
binder,measurement,setting,value
B1,glycan array binding signal (z-score),[1],0.129
same,glycan array binding signal (z-score),[2],-0.517
same,glycan array binding signal (z-score),[3],-0.112
same,glycan array binding signal (z-score),[4],-0.304
same,glycan array binding signal (z-score),[5],-1.01
same,glycan array binding signal (z-score),[6],-0.567
same,glycan array binding signal (z-score),[7],-0.545
same,glycan array binding signal (z-score),[8],0.211
same,glycan array binding signal (z-score),[9],-0.395
same,glycan array binding signal (z-score),[10],0.607
same,glycan array binding signal (z-score),[11],-0.599
same,glycan array binding signal (z-score),[12],-0.255
same,glycan array binding signal (z-score),[13],-0.229
same,glycan array binding signal (z-score),[14],-0.618
same,glycan array binding signal (z-score),[15],0.284
same,glycan array binding signal (z-score),[16],-0.61
same,glycan array binding signal (z-score),[17],0.401
same,glycan array binding signal (z-score),[18],-0.414
same,glycan array binding signal (z-score),[19],-0.758
same,glycan array binding signal (z-score),[20],0.585
same,glycan array binding signal (z-score),[21],0.289
same,glycan array binding signal (z-score),[22],0.12
same,glycan array binding signal (z-score),[23],-0.461
same,glycan array binding signal (z-score),[24],-0.608
same,glycan array binding signal (z-score),[25],-0.591
same,glycan array binding signal (z-score),[26],0.088
same,glycan array binding signal (z-score),[27],-0.795
same,glycan array binding signal (z-score),[28],0.168
same,glycan array binding signal (z-score),[29],-0.008
same,glycan array binding signal (z-score),[30],-0.22

# Reference: the supplement of paper PMC8728848
